From article PMC10026764, “Overcoming the imatinib-resistant BCR-ABL mutants with new ureidobenzothiazole chemotypes endowed with potent and broad-spectrum anticancer activity” (Journal of Enzyme Inhibition and Medicinal Chemistry, 2023)

Biological target: ABL^Q252H (Homo sapiens, UniProt P00519, Q252H)
Experiment: In vitro enzymatic activity, imatinib-resistant mutant panel
Format: biochemical

## CCN1CCN(c2ccc(NC(=O)Nc3nc4ccc(-c5ccccc5OC)cc4s3)cc2)CC1 [Compound 2b]
  IC50: 3.64 nM
